The other results are listed elsewhere or left out.
Columns and labels:
Assay in all cases: glycan array binding signal (z-score within array); higher = stronger binding
Conditions in all cases: glycan notation: IUPAC condensed, linker removed
[1] = target: Fuc(a1-3)[Gal(b1-4)]GlcNAc6S
Method in brief: (§1)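 The binding signal is a Z-score computed within each array and averaged over linkers. Arrays of the same protein sequence at different concentrations or buffers were also averaged together. Data originate from 3228 arrays in the Consortium for Functional Glycomics database, kept only where the protein sequence was available.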

[2] = target: Fuc(a1-3)[Gal3S(b1-4)]Glc6S
Method in brief: as §1

[3] = target: Fuc(a1-3)[Gal3S(b1-4)]GlcNAc
Method in brief: as §1

[4] = target: Fuc(a1-3)[Gal3S(b1-4)]GlcNAc6S
Method in brief: as §1

[5] = target: Fuc(a1-3)[GalNAc(b1-4)]GlcNAc
Method in brief: as §1

Fuc(a1-4)GlcNAc = target: Fuc(a1-4)GlcNAc
Method in brief: as §1

Fuc(b1-3)GlcNAc = target: Fuc(b1-3)GlcNAc
Method in brief: as §1

Gal(a1-2)Gal = target: Gal(a1-2)Gal
Method in brief: as §1

Gal(a1-3)Gal = target: Gal(a1-3)Gal
Method in brief: as §1

Gal(a1-3)Gal(b1-3)GlcNAc = target: Gal(a1-3)Gal(b1-3)GlcNAc
Method in brief: as §1

[6] = target: Gal(a1-3)Gal(b1-3)GlcNAc(b1-2)Man(a1-3)[Gal(a1-3)Gal(b1-3)GlcNAc(b1-2)Man(a1-6)]Man(b1-4)GlcNAc(b1-4)GlcNAc
Method in brief: as §1

[7] = target: Gal(a1-3)Gal(b1-3)[Fuc(a1-4)]GlcNAc(b1-2)Man(a1-3)[Gal(a1-3)Gal(b1-3)[Fuc(a1-4)]GlcNAc(b1-2)Man(a1-6)]Man(b1-4)GlcNAc(b1-4)GlcNAc
Method in brief: as §1

Gal(a1-3)Gal(b1-4)Glc = target: Gal(a1-3)Gal(b1-4)Glc
Method in brief: as §1

Gal(a1-3)Gal(b1-4)GlcNAc = target: Gal(a1-3)Gal(b1-4)GlcNAc
Method in brief: as §1

[8] = target: Gal(a1-3)Gal(b1-4)GlcNAc(b1-3)GalNAc
Method in brief: as §1

[9] = target: Gal(a1-3)Gal(b1-4)[Fuc(a1-3)]GlcNAc
Method in brief: as §1

[10] = target: Gal(a1-3)Gal(b1-4)[Fuc(a1-3)]GlcNAc(b1-2)Man(a1-3)[Gal(a1-3)Gal(b1-4)[Fuc(a1-3)]GlcNAc(b1-2)Man(a1-6)]Man(b1-4)GlcNAc(b1-4)GlcNAc
Method in brief: as §1

Gal(a1-3)GalNAc = target: Gal(a1-3)GalNAc
Method in brief: as §1

[11] = target: Gal(a1-3)[Gal(a1-4)]Gal(b1-4)GlcNAc
Method in brief: as §1

[12] = target: Gal(a1-4)Gal(b1-3)GlcNAc(b1-2)Man(a1-3)[Gal(a1-4)Gal(b1-3)GlcNAc(b1-2)Man(a1-6)]Man(b1-4)GlcNAc(b1-4)GlcNAc
Method in brief: as §1

Gal(a1-4)Gal(b1-4)Glc = target: Gal(a1-4)Gal(b1-4)Glc
Method in brief: as §1

Gal(a1-4)Gal(b1-4)GlcNAc = target: Gal(a1-4)Gal(b1-4)GlcNAc
Method in brief: as §1

[13] = target: Gal(a1-4)Gal(b1-4)GlcNAc(b1-2)Man(a1-3)[Gal(a1-4)Gal(b1-4)GlcNAc(b1-2)Man(a1-6)]Man(b1-4)GlcNAc(b1-4)GlcNAc
Method in brief: as §1

[14] = target: Gal(a1-4)Gal(b1-4)GlcNAc(b1-3)Gal(b1-4)Glc
Method in brief: as §1

Gal(a1-4)GlcNAc = target: Gal(a1-4)GlcNAc
Method in brief: as §1

Gal(a1-6)Glc = target: Gal(a1-6)Glc
Method in brief: as §1

Gal(b1-2)Gal = target: Gal(b1-2)Gal
Method in brief: as §1

Gal(b1-3)Gal = target: Gal(b1-3)Gal
Method in brief: as §1

Gal(b1-3)Gal(b1-4)GlcNAc = target: Gal(b1-3)Gal(b1-4)GlcNAc
Method in brief: as §1

[15] = target: Gal(b1-3)Gal(b1-4)GlcNAc(b1-2)Man(a1-3)[Gal(b1-3)Gal(b1-4)GlcNAc(b1-2)Man(a1-6)]Man(b1-4)GlcNAc(b1-4)GlcNAc
Method in brief: as §1

Gal(b1-3)GalNAc = target: Gal(b1-3)GalNAc
Method in brief: as §1

[16] = target: Gal(b1-3)GalNAc(a1-3)[Fuc(a1-2)]Gal(b1-4)Glc
Method in brief: as §1

[17] = target: Gal(b1-3)GalNAc(a1-3)[Fuc(a1-2)]Gal(b1-4)GlcNAc
Method in brief: as §1

[18] = target: Gal(b1-3)GalNAc(b1-3)Gal(a1-4)Gal(b1-4)Glc
Method in brief: as §1

[19] = target: Gal(b1-3)GalNAc(b1-4)Gal(b1-4)Glc
Method in brief: as §1

[20] = target: Gal(b1-3)GalNAc(b1-4)[Neu5Ac(a2-3)]Gal(b1-4)Glc
Method in brief: as §1

Gal(b1-3)GlcNAc = target: Gal(b1-3)GlcNAc
Method in brief: as §1

[21] = target: Gal(b1-3)GlcNAc(a1-6)Gal(b1-4)GlcNAc
Method in brief: as §1

[22] = target: Gal(b1-3)GlcNAc(b1-2)Man(a1-3)[Gal(b1-3)GlcNAc(b1-2)Man(a1-6)]Man(b1-4)GlcNAc(b1-4)GlcNAc
Method in brief: as §1

[23] = target: Gal(b1-3)GlcNAc(b1-2)Man(a1-3)[Gal(b1-3)GlcNAc(b1-2)Man(a1-6)]Man(b1-4)GlcNAc(b1-4)[Fuc(a1-6)]GlcNAc
Method in brief: as §1

[24] = target: Gal(b1-3)GlcNAc(b1-3)Gal(b1-3)GlcNAc
Method in brief: as §1

[25] = target: Gal(b1-3)GlcNAc(b1-3)Gal(b1-4)Glc
Method in brief: as §1

[26] = target: Gal(b1-3)GlcNAc(b1-3)Gal(b1-4)GlcNAc
Method in brief: as §1

[27] = target: Gal(b1-3)GlcNAc(b1-3)Gal(b1-4)GlcNAc(b1-6)[Gal(b1-3)GlcNAc(b1-3)]Gal(b1-4)Glc
Method in brief: as §1

[28] = target: Gal(b1-3)GlcNAc(b1-3)Gal(b1-4)[Fuc(a1-3)]GlcNAc(b1-6)[Gal(b1-3)GlcNAc(b1-3)]Gal(b1-4)Glc
Method in brief: as §1

[29] = target: Gal(b1-3)GlcNAc(b1-3)GalNAc
Method in brief: as §1

[30] = target: Gal(b1-3)GlcNAc(b1-6)Gal(b1-4)GlcNAc
Method in brief: as §1

[31] = target: Gal(b1-3)[Fuc(a1-4)]GlcNAc
Method in brief: as §1

[32] = target: Gal(b1-3)[Fuc(a1-4)]GlcNAc(b1-2)Man(a1-3)[Gal(b1-3)[Fuc(a1-4)]GlcNAc(b1-2)Man(a1-6)]Man(b1-4)GlcNAc(b1-4)GlcNAc
Method in brief: as §1

[33] = target: Gal(b1-3)[Fuc(a1-4)]GlcNAc(b1-2)Man(a1-3)[Gal(b1-3)[Fuc(a1-4)]GlcNAc(b1-2)Man(a1-6)]Man(b1-4)GlcNAc(b1-4)[Fuc(a1-6)]GlcNAc
Method in brief: as §1

[34] = target: Gal(b1-3)[Fuc(a1-4)]GlcNAc(b1-3)Gal(b1-3)[Fuc(a1-4)]GlcNAc
Method in brief: as §1

[35] = target: Gal(b1-3)[Fuc(a1-4)]GlcNAc(b1-3)Gal(b1-4)GlcNAc
Method in brief: as §1

[36] = target: Gal(b1-3)[Fuc(a1-4)]GlcNAc(b1-3)Gal(b1-4)[Fuc(a1-3)]GlcNAc
Method in brief: as §1

[37] = target: Gal(b1-3)[GlcNAc(b1-6)]GalNAc
Method in brief: as §1

[38] = target: Gal(b1-3)[Neu5Ac(a2-6)]GalNAc
Method in brief: as §1

[39] = target: Gal(b1-3)[Neu5Ac(a2-6)]GlcNAc(b1-6)Gal(b1-4)Glc
Method in brief: as §1

[40] = target: Gal(b1-3)[Neu5Ac(b2-6)]GalNAc
Method in brief: as §1

[41] = target: Gal(b1-4)GalNAc(a1-3)[Fuc(a1-2)]Gal(b1-4)GlcNAc
Method in brief: as §1

[42] = target: Gal(b1-4)GalNAc(b1-3)[Fuc(a1-2)]Gal(b1-4)GlcNAc
Method in brief: as §1

Gal(b1-4)Glc = target: Gal(b1-4)Glc
Method in brief: as §1

B1: Tachylectin-2 (Tachypleus tridentatus), TAL2_TACTR (protein)
chain: VGGESMLRGVYQDKFYQGTYPQNKNDNWLARATLIGKGGWSNFKFLFLSPGGELYGVLNDKIYKGTPPTHDNDNWMGRAKKIGNGGWNQFQFLFFDPNGYLYAVSKDKLYKASPPQSDTDNWIARATEIGSGGWSGFKFLFFHPNGYLYAVHGQQFYKALPPVSNQDNWLARATKIGQGGWDTFKFLFFSSVGTLFGVQGGKFYEDYPPSYAHDNWLARAKLIGNGGWDDFRFLFF
- glycan array binding signal (z-score) [1]: -0.31
- glycan array binding signal (z-score) [2]: -0.082
- glycan array binding signal (z-score) [3]: -0.337
- glycan array binding signal (z-score) [4]: -0.287
- glycan array binding signal (z-score) [5]: -0.106
- glycan array binding signal (z-score) (Fuc(a1-4)GlcNAc): -0.328
- glycan array binding signal (z-score) (Fuc(b1-3)GlcNAc): -0.243
- glycan array binding signal (z-score) (Gal(a1-2)Gal): -0.296
- glycan array binding signal (z-score) (Gal(a1-3)Gal): -0.313
- glycan array binding signal (z-score) (Gal(a1-3)Gal(b1-3)GlcNAc): -0.271
- glycan array binding signal (z-score) [6]: -0.29
- glycan array binding signal (z-score) [7]: -0.297
- glycan array binding signal (z-score) (Gal(a1-3)Gal(b1-4)Glc): -0.301
- glycan array binding signal (z-score) (Gal(a1-3)Gal(b1-4)GlcNAc): -0.091
- glycan array binding signal (z-score) [8]: -0.289
- glycan array binding signal (z-score) [9]: -0.066
- glycan array binding signal (z-score) [10]: -0.291
- glycan array binding signal (z-score) (Gal(a1-3)GalNAc): -0.304
- glycan array binding signal (z-score) [11]: -0.15
- glycan array binding signal (z-score) [12]: -0.292
- glycan array binding signal (z-score) (Gal(a1-4)Gal(b1-4)Glc): -0.324
- glycan array binding signal (z-score) (Gal(a1-4)Gal(b1-4)GlcNAc): -0.344
- glycan array binding signal (z-score) [13]: -0.29
- glycan array binding signal (z-score) [14]: -0.296
- glycan array binding signal (z-score) (Gal(a1-4)GlcNAc): 0.001
- glycan array binding signal (z-score) (Gal(a1-6)Glc): -0.265
- glycan array binding signal (z-score) (Gal(b1-2)Gal): -0.365
- glycan array binding signal (z-score) (Gal(b1-3)Gal): -0.284
- glycan array binding signal (z-score) (Gal(b1-3)Gal(b1-4)GlcNAc): -0.295
- glycan array binding signal (z-score) [15]: -0.291
- glycan array binding signal (z-score) (Gal(b1-3)GalNAc): -0.325
- glycan array binding signal (z-score) [16]: -0.293
- glycan array binding signal (z-score) [17]: -0.294
- glycan array binding signal (z-score) [18]: -0.286
- glycan array binding signal (z-score) [19]: -0.207
- glycan array binding signal (z-score) [20]: -0.324
- glycan array binding signal (z-score) (Gal(b1-3)GlcNAc): -0.244
- glycan array binding signal (z-score) [21]: -0.297
- glycan array binding signal (z-score) [22]: -0.325
- glycan array binding signal (z-score) [23]: -0.286
- glycan array binding signal (z-score) [24]: -0.341
- glycan array binding signal (z-score) [25]: -0.315
- glycan array binding signal (z-score) [26]: -0.357
- glycan array binding signal (z-score) [27]: -0.293
- glycan array binding signal (z-score) [28]: -0.294
- glycan array binding signal (z-score) [29]: -0.294
- glycan array binding signal (z-score) [30]: -0.295
- glycan array binding signal (z-score) [31]: -0.291
- glycan array binding signal (z-score) [32]: -0.279
- glycan array binding signal (z-score) [33]: -0.292
- glycan array binding signal (z-score) [34]: -0.338
- glycan array binding signal (z-score) [35]: -0.351
- glycan array binding signal (z-score) [36]: -0.22
- glycan array binding signal (z-score) [37]: -0.2
- glycan array binding signal (z-score) [38]: -0.192
- glycan array binding signal (z-score) [39]: -0.192
- glycan array binding signal (z-score) [40]: -0.221
- glycan array binding signal (z-score) [41]: -0.204
- glycan array binding signal (z-score) [42]: -0.29
- glycan array binding signal (z-score) (Gal(b1-4)Glc): -0.308
